# Measurements taken from a collection of fitness landscapes (doi:10.1016/j.celrep.2020.107928).
# In all, about 81,000 sequences were measured (“one-hybrid fitness for binding NBS DNA”: median about -0.1, highest 2% from about 0.36 on). The list shows a part of the results.
# B1: Caulobacter ParB omega fusion; a variant is named by its letters at X, in order, B8GW30 (parent)
# chain: MESVVVGEPGMSEGRRGLGRGLSALLGEVDAAPAQAPGEQLGGSREAPIEILQRNPDQPRRTFREEDLEDLSNSIREKGVLQPILVRPSPDTAGEYQIVAGERAWRAAQRAGLKTVPIMVRELDDLAVLEIGIIENVQRADLNVLEEALSYKVLMEKFERTQENIAQTIGKSXSHVANXMRLLXLPDEVQSYLVSGELTAXHARAIAAAADPVALAKQIIEGGLSVRETEALARKAPNLSAGKSKGGRPPRVKDTDTQALESDLSSVLGLDVSIDHRGSTGTLTITYATLEQLDDLCNRLTRGI
# Variants of: B1
# Test: one-hybrid fitness for binding NBS DNA (the Noc-binding site; scaled: cognate 1, non-cognate 0); higher = stronger binding
# Settings: with NBS DNA site
# Procedure, shortened: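 In E. coli USO, a HIS3 reporter with its site placed 19 bp from the promoter was used to select Caulobacter ParB variants randomised at four specificity codons. Growth lasted 48 hours at 37°C on histidine-free M9 containing 0.1 mM IPTG and 5 mM 3-AT. Fitness was taken as the log change in variant-to-wild-type read ratio from Illumina sequencing of pre- and post-selection plasmids, rescaled between the non-cognate and cognate sites.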
row,Variant,one-hybrid fitness for binding NBS DNA
1,RNHV,≤ 0.2
2,MNKS,≤ 0.2
3,QRRY,0.718
4,NTHC,≤ 0.2
5,ENYE,≤ 0.2
6,CIWS,≤ 0.2
7,MSPK,≤ 0.2
8,VVPT,≤ 0.2
9,TGIG,≤ 0.2
10,VHLY,≤ 0.2
11,CVTR,≤ 0.2
12,MHLG,≤ 0.2
13,RHQD,≤ 0.2
14,MRFS,≤ 0.2
15,RQRR,0.717
16,QYGY,≤ 0.2
17,EITT,≤ 0.2
18,FTQL,≤ 0.2
19,FRQR,≤ 0.2
20,ENVR,≤ 0.2
21,VPEL,≤ 0.2
22,KDPS,≤ 0.2
23,YRES,≤ 0.2
24,HAIF,≤ 0.2
25,TRVY,≤ 0.2
26,ATAN,≤ 0.2

row,Variant,one-hybrid fitness for binding NBS DNA
1,NHNE,≤ 0.2
2,NERR,≤ 0.2
3,MARY,≤ 0.2
4,WMTM,≤ 0.2
5,SRRW,≤ 0.2
6,RGSH,≤ 0.2
7,DAMD,≤ 0.2
8,TFYE,≤ 0.2
9,PYKQ,≤ 0.2
10,GMNL,≤ 0.2
11,PHTP,≤ 0.2
12,RNDL,≤ 0.2
13,TTCC,≤ 0.2
14,SAPK,≤ 0.2
15,SYFM,≤ 0.2
16,FPVL,≤ 0.2
17,NHHK,≤ 0.2
18,YFYM,≤ 0.2
19,QNLE,≤ 0.2
20,MPPW,≤ 0.2
21,EGLM,≤ 0.2
22,RGRN,≤ 0.2
23,MTHV,≤ 0.2
24,SVSG,≤ 0.2
25,GHST,≤ 0.2
26,PVEY,≤ 0.2

row,Variant,one-hybrid fitness for binding NBS DNA
1,KAEG,≤ 0.2
2,IWTI,≤ 0.2
3,IYTN,≤ 0.2
4,NQIS,≤ 0.2
5,SSHC,≤ 0.2
6,TMQE,≤ 0.2
7,NKTL,≤ 0.2
8,TYWS,≤ 0.2
9,DRPM,≤ 0.2
10,WQLY,≤ 0.2
11,TEKV,≤ 0.2
12,YDLI,≤ 0.2
13,RNSK,≤ 0.2
14,GCKE,≤ 0.2
15,GYMT,≤ 0.2
16,HANS,≤ 0.2
17,PPYR,≤ 0.2
18,LHCL,≤ 0.2
19,HNVL,≤ 0.2
20,QQPQ,≤ 0.2
21,FGRH,≤ 0.2
22,VQLW,≤ 0.2
23,PVLC,≤ 0.2
24,VAAL,≤ 0.2
25,RWYH,≤ 0.2
26,LTAV,≤ 0.2

row,Variant,one-hybrid fitness for binding NBS DNA
1,MVMS,≤ 0.2
2,VETR,≤ 0.2
3,EAEL,≤ 0.2
4,CWRG,≤ 0.2
5,GPYH,≤ 0.2
6,ANYC,≤ 0.2
7,CGNS,≤ 0.2
8,HTRV,≤ 0.2
9,QMPR,0.323
10,CTSL,≤ 0.2
11,KRQP,≤ 0.2
12,TGMV,≤ 0.2
13,PELR,≤ 0.2
14,GMSR,≤ 0.2
15,HKDR,≤ 0.2
16,MCHT,≤ 0.2
17,NNQP,≤ 0.2
18,GCAI,≤ 0.2
19,NHCS,≤ 0.2
20,LNKI,≤ 0.2
21,VSMY,≤ 0.2
22,QFPD,≤ 0.2
23,VRYL,≤ 0.2
24,GGHC,≤ 0.2
25,VKRL,≤ 0.2
26,SKRN,≤ 0.2

row,Variant,one-hybrid fitness for binding NBS DNA
1,AKEV,≤ 0.2
2,NWCG,≤ 0.2
3,NANL,≤ 0.2
4,IVLG,≤ 0.2
5,LNGD,≤ 0.2
6,TTGF,≤ 0.2
7,YTAW,≤ 0.2
8,YREL,≤ 0.2
9,YITL,≤ 0.2
10,IKAS,≤ 0.2
11,ASDD,≤ 0.2
12,RGHG,≤ 0.2
13,CVSS,≤ 0.2
14,IHVT,≤ 0.2
15,FHYS,≤ 0.2
16,ARAN,≤ 0.2
17,DHLA,≤ 0.2
18,ARRM,≤ 0.2
19,EREG,≤ 0.2
20,AIPT,≤ 0.2
21,FRAS,≤ 0.2
22,SPVT,≤ 0.2
23,MHVL,≤ 0.2
24,RRRP,0.283
25,SQPN,≤ 0.2
26,LREG,≤ 0.2

row,Variant,one-hybrid fitness for binding NBS DNA
1,MTGF,≤ 0.2
2,CGKS,≤ 0.2
3,NGVG,≤ 0.2
4,QLAE,≤ 0.2
5,PHTG,≤ 0.2
6,AAHA,≤ 0.2
7,GGED,≤ 0.2
8,RLEE,≤ 0.2
9,IAIG,≤ 0.2
10,PDPS,≤ 0.2
11,CISR,≤ 0.2
12,KWNR,≤ 0.2
13,HMMG,≤ 0.2
14,VVQC,≤ 0.2
15,NRTS,≤ 0.2
16,APCG,≤ 0.2
17,QILT,0.236
18,HLTE,≤ 0.2
19,AHRA,≤ 0.2
20,RPSA,≤ 0.2
21,GHWE,≤ 0.2
22,PRNK,≤ 0.2
23,TFSG,≤ 0.2
